From a collection of fitness landscapes (doi:10.1016/j.celrep.2020.107928)
The full ranking holds about 81,000 sequences; the median of “one-hybrid fitness for binding NBS DNA” is about -0.1, and the highest 2% start at about 0.36. The list shows a part of the results.

B1: Caulobacter ParB omega fusion; a variant is named by its letters at X, in order, B8GW30 (parent)
chain: MESVVVGEPGMSEGRRGLGRGLSALLGEVDAAPAQAPGEQLGGSREAPIEILQRNPDQPRRTFREEDLEDLSNSIREKGVLQPILVRPSPDTAGEYQIVAGERAWRAAQRAGLKTVPIMVRELDDLAVLEIGIIENVQRADLNVLEEALSYKVLMEKFERTQENIAQTIGKSXSHVANXMRLLXLPDEVQSYLVSGELTAXHARAIAAAADPVALAKQIIEGGLSVRETEALARKAPNLSAGKSKGGRPPRVKDTDTQALESDLSSVLGLDVSIDHRGSTGTLTITYATLEQLDDLCNRLTRGI

Variants of: B1
Experiment: one-hybrid fitness for binding NBS DNA (the Noc-binding site; scaled: cognate 1, non-cognate 0); higher = stronger binding
Settings: with NBS DNA site
Method in brief: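 Caulobacter ParB libraries with four specificity codons randomised were screened by bacterial one-hybrid selection in the E. coli USO strain, using a HIS3 reporter whose site lies 19 bp from the promoter. Selection ran for 48 hours at 37°C on M9 lacking histidine, with 0.1 mM IPTG and 5 mM 3-AT. Plasmids were Illumina-sequenced before and after selection, three replicate libraries were pooled, and variants with under 10 reads were dropped. Fitness is the log change in each variant's read ratio to wild type, rescaled against the cognate and non-cognate sites.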

| Variant | one-hybrid fitness for binding NBS DNA |
| --- | --- |
| PNAG | ≤ 0.2 |
| RVMW | ≤ 0.2 |
| DFKR | ≤ 0.2 |
| NYVH | ≤ 0.2 |
| GLKI | ≤ 0.2 |
| LQLF | ≤ 0.2 |
| NETG | ≤ 0.2 |
| RKTE | ≤ 0.2 |
| AKRR | ≤ 0.2 |
| VSLA | ≤ 0.2 |
| LPSY | ≤ 0.2 |
| MNRG | ≤ 0.2 |
| RHYI | ≤ 0.2 |
| SLQP | ≤ 0.2 |
| ELLD | ≤ 0.2 |
| TCKC | ≤ 0.2 |
| WHGG | ≤ 0.2 |
| YVHE | ≤ 0.2 |
| VLEG | ≤ 0.2 |
| PWAF | ≤ 0.2 |
| TGSV | ≤ 0.2 |
| KLGW | ≤ 0.2 |
| CMVR | ≤ 0.2 |
| TWPN | ≤ 0.2 |

| Variant | one-hybrid fitness for binding NBS DNA |
| --- | --- |
| KCPT | ≤ 0.2 |
| LHSF | ≤ 0.2 |
| NINI | ≤ 0.2 |
| FSWE | ≤ 0.2 |
| QRGA | 0.653 |
| IIQC | ≤ 0.2 |
| PGYL | ≤ 0.2 |
| RGQG | ≤ 0.2 |
| QAVE | ≤ 0.2 |
| VPRW | ≤ 0.2 |
| RTQT | 0.537 |
| VHHV | ≤ 0.2 |
| QNNV | ≤ 0.2 |
| PQCL | ≤ 0.2 |
| NYRI | ≤ 0.2 |
| IYAS | ≤ 0.2 |
| NGMS | ≤ 0.2 |
| GPVC | ≤ 0.2 |
| PNRC | ≤ 0.2 |
| TTYP | ≤ 0.2 |
| QPET | ≤ 0.2 |
| RNDR | ≤ 0.2 |
| KMPN | ≤ 0.2 |
| ALIM | ≤ 0.2 |

| Variant | one-hybrid fitness for binding NBS DNA |
| --- | --- |
| VYVV | ≤ 0.2 |
| EPCS | ≤ 0.2 |
| DLWS | ≤ 0.2 |
| VRQS | ≤ 0.2 |
| TFTS | ≤ 0.2 |
| SVYA | ≤ 0.2 |
| NAGG | ≤ 0.2 |
| CKHG | ≤ 0.2 |
| AVRS | ≤ 0.2 |
| AYQC | ≤ 0.2 |
| ITLV | ≤ 0.2 |
| QHQM | ≤ 0.2 |
| WFDG | ≤ 0.2 |
| RRDD | ≤ 0.2 |
| VTVC | ≤ 0.2 |
| KPHC | ≤ 0.2 |
| HRSW | ≤ 0.2 |
| WMIS | ≤ 0.2 |
| RVLI | ≤ 0.2 |
| SGMG | ≤ 0.2 |
| SAHS | ≤ 0.2 |
| GRTA | ≤ 0.2 |
| TDSL | ≤ 0.2 |
| KHSS | ≤ 0.2 |

| Variant | one-hybrid fitness for binding NBS DNA |
| --- | --- |
| EDTE | ≤ 0.2 |
| YPPG | ≤ 0.2 |
| YHHG | ≤ 0.2 |
| LDKS | ≤ 0.2 |
| IDVL | ≤ 0.2 |
| CTVT | ≤ 0.2 |
| LPML | ≤ 0.2 |
| EHVR | ≤ 0.2 |
| QGTL | ≤ 0.2 |
| NMVT | ≤ 0.2 |
| KNKV | ≤ 0.2 |
| TPDC | ≤ 0.2 |
| WKKA | ≤ 0.2 |
| HHMF | ≤ 0.2 |
| WRSC | ≤ 0.2 |
| QNPQ | ≤ 0.2 |
| CTTC | ≤ 0.2 |
| NCIS | ≤ 0.2 |
| FQHT | ≤ 0.2 |
| TEVM | ≤ 0.2 |
| VPNS | ≤ 0.2 |
| PRHE | ≤ 0.2 |
| SWRD | ≤ 0.2 |
| NDPS | ≤ 0.2 |

| Variant | one-hybrid fitness for binding NBS DNA |
| --- | --- |
| ETTD | ≤ 0.2 |
| TRDK | ≤ 0.2 |
| INDL | ≤ 0.2 |
| TRVT | ≤ 0.2 |
| LKTE | ≤ 0.2 |
| PYIH | ≤ 0.2 |
| MLRC | ≤ 0.2 |
| ADLS | ≤ 0.2 |
| HDLI | ≤ 0.2 |
| TIWT | ≤ 0.2 |
| WNHF | ≤ 0.2 |
| HRSQ | ≤ 0.2 |
| FTKM | ≤ 0.2 |
| RMPP | ≤ 0.2 |
| QAFL | ≤ 0.2 |
| VSRD | ≤ 0.2 |
| QKCA | ≤ 0.2 |
| APEG | ≤ 0.2 |
| WTER | ≤ 0.2 |
| QFTL | ≤ 0.2 |
| VFNC | ≤ 0.2 |
| RGDY | ≤ 0.2 |
| ACLN | ≤ 0.2 |
| PFGT | ≤ 0.2 |

| Variant | one-hybrid fitness for binding NBS DNA |
| --- | --- |
| LCLW | ≤ 0.2 |
| RVFY | ≤ 0.2 |
| FMTG | ≤ 0.2 |
| WLEL | ≤ 0.2 |
| RVIT | 0.222 |
| AAPD | ≤ 0.2 |
| LCRP | ≤ 0.2 |
| GWKC | ≤ 0.2 |
| ALTR | ≤ 0.2 |
| DDCG | ≤ 0.2 |
| VAMS | ≤ 0.2 |
| SIGC | ≤ 0.2 |
| WNSS | ≤ 0.2 |
| LVNL | ≤ 0.2 |
| QVGH | ≤ 0.2 |
| RHNV | ≤ 0.2 |
| GTCT | ≤ 0.2 |
| CRAI | ≤ 0.2 |
| DLYG | ≤ 0.2 |
| GVMS | ≤ 0.2 |
| TLCY | ≤ 0.2 |
| NSCT | ≤ 0.2 |
| ANLE | ≤ 0.2 |
| THPP | ≤ 0.2 |

| Variant | one-hybrid fitness for binding NBS DNA |
| --- | --- |
| HRTY | ≤ 0.2 |
| PFMC | ≤ 0.2 |
| GAAE | ≤ 0.2 |
| GKGN | ≤ 0.2 |
| LGLP | ≤ 0.2 |
| KCPC | ≤ 0.2 |
| GRGS | ≤ 0.2 |
| FKLF | ≤ 0.2 |
| HPVN | ≤ 0.2 |
| QCMF | ≤ 0.2 |
| CEHG | ≤ 0.2 |
| LTSR | ≤ 0.2 |
| FRPN | ≤ 0.2 |
| KTAV | ≤ 0.2 |
| PCKA | ≤ 0.2 |
| QQDE | ≤ 0.2 |
| ITMG | ≤ 0.2 |
| IGVG | ≤ 0.2 |
| SYRA | ≤ 0.2 |
| ASNW | ≤ 0.2 |
| RQED | ≤ 0.2 |
| PDPF | ≤ 0.2 |
| LIQM | ≤ 0.2 |
| RWAI | ≤ 0.2 |

| Variant | one-hybrid fitness for binding NBS DNA |
| --- | --- |
| SISR | ≤ 0.2 |
| RLIK | ≤ 0.2 |
| VSIE | ≤ 0.2 |
| DYNA | ≤ 0.2 |
| NTNT | ≤ 0.2 |
| TRTF | ≤ 0.2 |
| RFCY | ≤ 0.2 |
| MQLR | ≤ 0.2 |
| SYRF | ≤ 0.2 |
| HQTC | ≤ 0.2 |
| EKLC | ≤ 0.2 |
| MSPS | ≤ 0.2 |
| YTLR | ≤ 0.2 |
| AQSF | ≤ 0.2 |
| LYCN | ≤ 0.2 |
| VRTV | ≤ 0.2 |
| MPMS | ≤ 0.2 |
| LRPV | ≤ 0.2 |
| DLKG | ≤ 0.2 |
| DLDG | ≤ 0.2 |
| NGAM | ≤ 0.2 |
| PLCG | ≤ 0.2 |
| EESF | ≤ 0.2 |
| PWHR | ≤ 0.2 |

| Variant | one-hybrid fitness for binding NBS DNA |
| --- | --- |
| QADR | 0.314 |
| VSFT | ≤ 0.2 |
| QQNY | 0.306 |
| SILF | ≤ 0.2 |
| CMQA | ≤ 0.2 |
| KTTF | ≤ 0.2 |
| RFGC | ≤ 0.2 |
| KFTN | ≤ 0.2 |
| TQRF | ≤ 0.2 |
| RGNF | ≤ 0.2 |
| VYKY | ≤ 0.2 |
| KIQS | ≤ 0.2 |
| LRFW | ≤ 0.2 |
| IRFT | ≤ 0.2 |
| HVMG | ≤ 0.2 |
| AHLG | ≤ 0.2 |
| RKQV | ≤ 0.2 |
| LRRY | ≤ 0.2 |
| PFHR | ≤ 0.2 |
| FLST | ≤ 0.2 |
| MTLG | ≤ 0.2 |
| HVVL | ≤ 0.2 |
| QTMC | ≤ 0.2 |
| NATI | ≤ 0.2 |

| Variant | one-hybrid fitness for binding NBS DNA |
| --- | --- |
| HNQW | ≤ 0.2 |
| TPFA | ≤ 0.2 |
| RRCK | 0.254 |
| FGVS | ≤ 0.2 |
| KYEG | ≤ 0.2 |
| SQAG | ≤ 0.2 |
| HDTE | ≤ 0.2 |
| TTRN | ≤ 0.2 |
| NGTS | ≤ 0.2 |
| RFVT | ≤ 0.2 |
| SSQF | ≤ 0.2 |
| RGRT | ≤ 0.2 |
| SEIS | ≤ 0.2 |
| HLAG | ≤ 0.2 |
| DLVC | ≤ 0.2 |
| NRAT | ≤ 0.2 |
| SVDL | ≤ 0.2 |
| VVPK | ≤ 0.2 |
| LSMF | ≤ 0.2 |
| NKVD | ≤ 0.2 |
| LAMG | ≤ 0.2 |
| ESFC | ≤ 0.2 |
| CWRY | ≤ 0.2 |
| AKRG | ≤ 0.2 |

| Variant | one-hybrid fitness for binding NBS DNA |
| --- | --- |
| PNYY | ≤ 0.2 |
| KMVN | ≤ 0.2 |
| NHVG | ≤ 0.2 |
| EKAT | ≤ 0.2 |
| VNSL | ≤ 0.2 |
| QSIY | ≤ 0.2 |
| WPCT | ≤ 0.2 |
| HQDG | ≤ 0.2 |
| HHVL | ≤ 0.2 |
| QAMI | ≤ 0.2 |
| SASC | ≤ 0.2 |
| PVWG | ≤ 0.2 |
| DTLE | ≤ 0.2 |
| RSEW | ≤ 0.2 |
| PPIK | ≤ 0.2 |
| DRMT | ≤ 0.2 |
| PDFD | ≤ 0.2 |
| HFID | ≤ 0.2 |
| IYLG | ≤ 0.2 |
| RPKG | ≤ 0.2 |
| CFAL | ≤ 0.2 |
| MNPV | ≤ 0.2 |
| RKQC | 0.22 |
| QITH | ≤ 0.2 |

| Variant | one-hybrid fitness for binding NBS DNA |
| --- | --- |
| TWRT | ≤ 0.2 |
| QRIW | ≤ 0.2 |
| TWPM | ≤ 0.2 |
| YDSP | ≤ 0.2 |
| YLCG | ≤ 0.2 |
| RYGF | ≤ 0.2 |
| QSCQ | ≤ 0.2 |
| PINI | ≤ 0.2 |
| QFNR | 0.268 |
| GIDC | ≤ 0.2 |
| PRYP | ≤ 0.2 |
| SEYR | ≤ 0.2 |
| SVDD | ≤ 0.2 |
| PAWR | ≤ 0.2 |
| AKQI | ≤ 0.2 |
| RMVK | ≤ 0.2 |
| CCRC | ≤ 0.2 |
| ILTQ | ≤ 0.2 |
| SHVC | ≤ 0.2 |
| QQKM | 0.476 |
| TLEH | ≤ 0.2 |
| LPNA | ≤ 0.2 |
| HRCT | ≤ 0.2 |
| IEWG | ≤ 0.2 |

| Variant | one-hybrid fitness for binding NBS DNA |
| --- | --- |
| CKIR | ≤ 0.2 |
| SCVT | ≤ 0.2 |
| LCKD | ≤ 0.2 |
| VPVA | ≤ 0.2 |
| TNGL | ≤ 0.2 |
| KTEL | ≤ 0.2 |
| TSAW | ≤ 0.2 |
| AKTR | ≤ 0.2 |
| MARE | ≤ 0.2 |
| TPVT | 0.375 |
| PWRV | ≤ 0.2 |
| TGIT | ≤ 0.2 |
| TMRT | ≤ 0.2 |
| KVAS | ≤ 0.2 |
| RHFA | ≤ 0.2 |
| LYTG | ≤ 0.2 |
| RMVA | ≤ 0.2 |
| TANY | ≤ 0.2 |
